Results reported in PubChem BioAssay AID504339 (National Center for Advancing Translational Sciences (NCATS), 2011).
About 17,000 (4.4%) of roughly 390,000 compounds were called active. The shares of active, inactive and inconclusive entries below differ from those in the screen. Calls follow the shape of the dose curve; as a rule, active = well fitted inhibition curve with a large enough effect; inconclusive = small, poorly fitted or top-dose-only effect; inactive = no such curve, though single readings can be large or run the other way. Potencies of inconclusive entries are doubtful fits and often do not repeat.

Molecular target: Lysine-specific demethylase 4A (Homo sapiens) (UniProt O75164)
UniProt O75164, sequence (O75164 whole entry, looked up, the tested form may be a part): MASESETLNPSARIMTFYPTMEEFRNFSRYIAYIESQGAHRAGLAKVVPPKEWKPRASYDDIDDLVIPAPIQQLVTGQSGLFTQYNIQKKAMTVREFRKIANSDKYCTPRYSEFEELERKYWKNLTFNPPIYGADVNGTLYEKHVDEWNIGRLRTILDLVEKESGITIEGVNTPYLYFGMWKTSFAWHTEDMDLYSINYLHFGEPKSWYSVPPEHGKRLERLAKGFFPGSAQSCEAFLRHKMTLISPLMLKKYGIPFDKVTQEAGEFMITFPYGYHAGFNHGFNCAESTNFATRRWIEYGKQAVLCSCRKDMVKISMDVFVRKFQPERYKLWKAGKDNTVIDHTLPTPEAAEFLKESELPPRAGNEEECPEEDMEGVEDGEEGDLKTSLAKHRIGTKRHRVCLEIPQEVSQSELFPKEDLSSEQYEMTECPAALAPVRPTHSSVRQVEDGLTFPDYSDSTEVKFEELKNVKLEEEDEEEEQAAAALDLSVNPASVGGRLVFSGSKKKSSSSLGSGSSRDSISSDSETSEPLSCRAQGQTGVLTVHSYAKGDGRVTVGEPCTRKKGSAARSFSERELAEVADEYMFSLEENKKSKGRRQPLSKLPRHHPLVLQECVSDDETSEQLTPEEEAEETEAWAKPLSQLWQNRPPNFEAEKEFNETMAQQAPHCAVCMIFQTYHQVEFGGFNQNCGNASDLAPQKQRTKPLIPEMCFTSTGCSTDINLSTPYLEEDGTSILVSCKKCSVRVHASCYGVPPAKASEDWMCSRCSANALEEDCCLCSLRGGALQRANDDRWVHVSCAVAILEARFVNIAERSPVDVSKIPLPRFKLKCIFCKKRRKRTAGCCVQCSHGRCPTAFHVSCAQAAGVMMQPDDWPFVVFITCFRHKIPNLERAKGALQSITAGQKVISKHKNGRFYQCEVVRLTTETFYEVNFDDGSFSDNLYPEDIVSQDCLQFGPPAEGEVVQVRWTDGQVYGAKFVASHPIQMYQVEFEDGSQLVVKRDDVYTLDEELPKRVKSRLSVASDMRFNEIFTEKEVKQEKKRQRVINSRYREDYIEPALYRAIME
Experiment: qHTS Assay for Inhibitors of JMJD2A-Tudor Domain; also: nearly all actives have a fitted effect of over 50% in size
Settings: AlphaScreen JMJD2A-Tudor / H3K4me3 peptide binding; series mostly up to 114 µM
Potency is read from the fitted curve at half-maximal effect; tags tell the direction and shape of the fitted curve.

Potency, inactive:
CCCCCC[N+](C)(C)CCSSCC[N+](C)(C)CCCCCC
COC(=O)CSc1nnc2n(-c3ccccc3)c(=O)c3c4c(sc3n12)COC(C(C)C)C4 (stereo unspecified)
O=C(CNc1cccc2ccccc12)N/N=C/c1ccc([N+](=O)[O-])cc1
CCCc1nn2c(C)c(-c3ccccc3)nc2s1
O=S(=O)(Nc1cccc(-c2ccc(N3CCOCC3)nn2)c1)c1ccc(F)cc1F
CC(C)CN(C(=O)CSc1nnc(C2CC2)n1-c1ccccc1)C1CCS(=O)(=O)C1 (stereo unspecified)
O=C(c1ccoc1)N1CCC(CO)(CCc2ccccc2)CC1
Cc1cccc(N2CCN(C(=O)C3CCN(S(=O)(=O)c4ccc5c(c4)oc(=O)n5C)CC3)CC2)c1C
Cc1ccc(C)c(CN2C(=O)c3ccccc3S(=O)c3ccc(C(=O)N(C)Cc4ccccc4)cc32)c1 (stereo unspecified)
CCOc1ccc(C(=O)NC2CCN(C(=S)NCc3ccco3)CC2)cc1

Potency, inconclusive:
CC(=O)c1cccc(NC(=O)CN(C)S(=O)(=O)c2cccc3nsnc23)c1 89.1 µM [inhibitor, partial curve]
Cc1cccc(C(=O)NC2CCN(C(=O)NCc3ccccc3)CC2)c1 0.708 µM [inhibitor, full curve, poor fit]
CCN(CC)c1ccc(CNc2nc3ccccc3n2CC)cc1 10 µM [inhibitor, full curve]
CN(C)c1ccc(C(C(=O)NCc2ccccc2)N(Cc2ccco2)C(=O)c2snc(C(N)=O)c2N)cc1 (stereo unspecified) 39.8 µM [inhibitor, partial curve]
Nc1[nH]nc2nc(NCc3ccccc3)c3c(c12)CCN(Cc1ccccc1)C3 56.2 µM [inhibitor, partial curve]
COc1cccc(/C=C2\SC(=S)N(C(C(=O)O)c3ccccc3)C2=O)c1OC (stereo unspecified) 20 µM [inhibitor, full curve]
COc1ccc(/C(C)=N/NC(=S)Nc2cc(C)ccc2C)cc1 39.8 µM [inhibitor, partial curve]
C(=N\Nc1nc2ccccc2s1)/c1ccco1 63.1 µM [inhibitor, partial curve]
Cc1ccc(-n2ncc(C(=O)N3CCC(c4ccccc4)C3)c2C2CCN(C(=O)OC(C)(C)C)CC2)cc1 (stereo unspecified) 56.2 µM [inhibitor, partial curve]
Cc1ccc(C)c(N2CCN(C(=O)c3cc4c(=O)n(Cc5cccs5)ccc4nc3C)CC2)c1 44.7 µM [inhibitor, partial curve, poor fit]

Potency, active:
c1ccc(-c2sc3ccccc3c2-c2ccc(OCCN3CCCC3)cc2)cc1 50.1 µM
